The whole screen tested about 390,000 compounds, of which about 4,700 (1.2%) were called active. Roughly 4% stayed inconclusive and do not appear here. The call rests on the fitted dose curve; in most records, active means well fitted inhibition curve with a large enough effect; inconclusive means small, poorly fitted or top-dose-only effect, or another doubt; inactive means no such curve, though single readings can be large or run the other way. This is a selection; strong and weak results do not stand in their true shares.
What follows are compounds tested against DNA polymerase eta (Homo sapiens) (UniProt Q9Y253) (assay: qHTS for Inhibitors of Polymerase Eta). Details: recombinant Pol eta, fluorescent DNA replication assay; series mostly up to 114 µM; activity change, negative = inhibition: at the top concentration.
Sequence of UniProt Q9Y253 (Q9Y253 whole entry, looked up): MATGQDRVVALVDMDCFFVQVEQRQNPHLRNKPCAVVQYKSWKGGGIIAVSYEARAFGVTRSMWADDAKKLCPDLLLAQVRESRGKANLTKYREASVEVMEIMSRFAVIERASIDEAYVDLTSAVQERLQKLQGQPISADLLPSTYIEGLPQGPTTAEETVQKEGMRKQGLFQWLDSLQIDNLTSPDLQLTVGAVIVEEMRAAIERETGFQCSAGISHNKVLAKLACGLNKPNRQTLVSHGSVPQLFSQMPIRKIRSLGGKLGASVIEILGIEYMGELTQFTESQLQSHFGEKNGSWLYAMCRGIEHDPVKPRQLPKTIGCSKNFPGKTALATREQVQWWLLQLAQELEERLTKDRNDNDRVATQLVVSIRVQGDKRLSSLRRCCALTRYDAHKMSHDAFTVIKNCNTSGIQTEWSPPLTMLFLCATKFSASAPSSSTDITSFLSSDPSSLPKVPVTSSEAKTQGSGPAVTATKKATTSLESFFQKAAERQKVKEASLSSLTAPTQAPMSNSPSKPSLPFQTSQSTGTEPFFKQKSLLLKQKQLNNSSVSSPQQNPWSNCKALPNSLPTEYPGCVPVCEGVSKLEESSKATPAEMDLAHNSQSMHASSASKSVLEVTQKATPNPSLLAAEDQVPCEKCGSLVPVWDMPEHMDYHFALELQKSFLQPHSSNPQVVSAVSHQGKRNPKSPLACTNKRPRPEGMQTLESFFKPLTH
Description: The Y-family of DNA polymerases, such as Pol eta, are specifically involved in DNA repair. Pol eta copies undamaged DNA with a lower fidelity than other DNA-directed polymerases. However, it accurately replicates UV-damaged DNA; when thymine dimers are present, this polymerase inserts the complementary nucleotides in the newly synthesized DNA, thereby bypassing the lesion and suppressing the mutagenic effect of UV-induced DNA damage. […] Thus, while pol eta's (and most likely iota's) normal function is to protect humans against the deleterious consequences of DNA damage, under certain conditions they can have deleterious effects on human health. As a consequence, we propose to utilize a high throughput replication assay to identify small molecule inhibitors of pol eta. In a collaboration between the National Institute of Child Health & Human Development (NICHD) and NIH Chemical Genomics Center, a high-throughput, fluorescent screen was developed to screen the NIH Molecular Libraries Small Molecule Repository (MLSMR). This screen is used to identify inhibitors of pol eta. NIH Chemical Genomics Center [NCGC] NIH Molecular Libraries Probe Centers Network [MLPCN] MLPCN Grant: MH090825 Assay Submitter (PI): Roger Woodgate, NICHD)
Three microliters of reagents (buffer in column 3 and 4 as negative control and 10 nM Pol eta in columns 1, 2, and 5-48) were dispensed into a 1,536-well black solid-bottomed plate. Compounds (23 nL) were transferred via Kalypsys pin tool equipped with 1536-pin array. The plates were then incubated for 15 min at room temperature, and 1 µL substrate (50 nM final concentration) was added to start the reaction and kinetically read twice at 0 min and 10 min on the Viewlux reader
In the case of `CN1C(C(=O)Nc2ccc(OC(F)(F)F)cc2)=CC(c2cccs2)=NS1(=O)=O`, the “activity change, negative = inhibition” value is reported as inactive: -15.3%.
In the case of `CCNC(=O)COC(=O)c1ccc(S(=O)(=O)N2CCCCCC2)cc1`, the “activity change, negative = inhibition” value is reported as inactive: -2.48%.
For `C/C(N)=C(/C#N)C(=O)CSc1nnnn1-c1ccccc1`, the Potency was active: 15.8 µM.
With `NN1C(=O)/C(=C2/Sc3ccccc3N2CCCS(=O)(=O)O)SC1=S` the Potency was active: 50.1 µM.
`C=CC[C@H](CC(=O)N(CCO)Cc1ccccc1)C(=O)N[C@H](COC(=O)[C@H](CC=C)CC(=O)OC(C)(C)C)Cc1c[nH]c2ccccc12` was tested, and the “activity change, negative = inhibition” value was inactive: -22.3%.
For `CCCc1cc(=O)oc2cc(OCC(=O)NC(Cc3c[nH]c4ccc(O)cc34)C(=O)O)c(Cl)cc12` (configuration not stated), the Potency was active: 39.8 µM.
For `COc1cccc(CNC(=O)Cn2nc(-c3ccc(Cl)cc3)ccc2=O)c1`, the “activity change, negative = inhibition” value was inactive: -13.9%.
In the case of `CC(C)C[C@H](CO)N(Cc1ccccc1)S(=O)(=O)N(Cc1ccccc1)[C@@H](CO)CC(C)C`, the “activity change, negative = inhibition” value is reported as inactive: -23.5%.
In the case of `CCOC(=O)c1cccc(NC(=O)C2CCCN(S(=O)(=O)c3c(C)n[nH]c3C)C2)c1` (configuration not stated), the “activity change, negative = inhibition” value is reported as inactive: 2.67%.
With `O=C(COC(=O)C1CC2C=CC1C2)NCc1ccco1` (configuration not stated) the Potency was active: 8.91 µM.
For `C=CC[C@@H](Cc1ccc(F)cc1)C(=O)OC[C@@H]1CCCN1C(=O)[C@H](CC=C)CC(=O)N[C@H](CO)Cc1ccccc1`, the “activity change, negative = inhibition” value was inactive: -20%.
`COC(=O)c1c(C)[nH]c(C(=O)COc2ccc3ccc(=O)oc3c2)c1C` was tested, and the Potency was active: 44.7 µM.
With `Cc1ccc(NC(=O)N/C=C/c2ccco2)cc1C` the Potency was active: 28.2 µM.
`CCOc1ccc(NS(=O)(=O)c2ccc3[nH]cc(C(=O)NCCOC)c(=O)c3c2)cc1` was tested, and the “activity change, negative = inhibition” value was inactive: 3.57%.
With `CCCCCC(=O)N1C[C@@H](n2cc(C3CC3)nn2)[C@H](O)C[C@@H]1c1ccc(Cl)cc1` the “activity change, negative = inhibition” value was inactive: -17.3%.
`O=C(COc1ccc2c(-c3ccccc3)cc(=O)oc2c1)NC(Cc1c[nH]c2ccccc12)C(=O)O` (configuration not stated) was tested, and the “activity change, negative = inhibition” value was inactive: 2.65%.
In the case of `C=CCC[C@H](Cc1ccc(F)cc1)C(=O)OC[C@@H](Cc1c[nH]c2ccccc12)NC(=O)[C@@H](CC=C)CC(=O)N(CCO)Cc1ccccc1`, the “activity change, negative = inhibition” value is reported as inactive: -14.9%.
`CC(=O)c1ccc(NC(=O)c2noc3c2CCC3)cc1` was tested, and the Potency was active: 44.7 µM.
For `C#CCNC(=O)C1=C[C@@H](c2ccc(C#C)cc2)C[C@@H](OCc2ccc(CO)cc2)O1`, the “activity change, negative = inhibition” value was inactive: -12.3%.
For `Cc1ccc(-c2nc(NC(=O)CSc3cc(C)c4ccccc4n3)ns2)cc1`, the “activity change, negative = inhibition” value was inactive: -3.16%.
With `C=CCSc1nnc(-c2cnn(-c3ccccc3)c2-n2cccc2)n1C` the “activity change, negative = inhibition” value was inactive: -7.17%.
For `O=C(Nc1ccc2c(c1)OCO2)c1cc2ncc(Br)cn2n1`, the Potency was active: 3.55 µM.
With `OCC[C@H]1C[C@@H](O)[C@H](O)[C@]2(CCCc3ccccc3O2)O1` the “activity change, negative = inhibition” value was inactive: 1.89%.
`CCn1cc(C(=O)NCCCN(CC(C)C)CC(C)C)c(=O)c2cc(S(=O)(=O)N(C)C3CCCCC3)ccc21` was tested, and the “activity change, negative = inhibition” value was inactive: -16.8%.
With `CC1(C)CC(=O)C(C=Nc2ccc(Cl)cn2)=C(O)C1` the “activity change, negative = inhibition” value was inactive: 3.72%.
`COc1ccccc1CNC(=O)C1CCCN(c2nn3cc(-c4ccc(F)cc4)nc3s2)C1` (configuration not stated) was tested, and the “activity change, negative = inhibition” value was inactive: 19.3%.
In the case of `Cc1ccc(C2C(C#N)=C(N)Oc3cc(C)oc(=O)c32)o1` (configuration not stated), the “activity change, negative = inhibition” value is reported as inactive: 30.8%.
With `O=C(O)CC/C(=C\c1cccc(NC(=O)c2ccccc2Cl)c1)c1nc2ccccc2s1` the “activity change, negative = inhibition” value was inactive: -9.38%.
`Cc1cccc(N=C2NC(=O)/C(=C/c3cccs3)S2)c1` was tested, and the “activity change, negative = inhibition” value was inactive: -17.8%.
`Cn1cc(CCC(=O)NCc2ccc(Cl)cc2)c2ccccc21` was tested, and the “activity change, negative = inhibition” value was inactive: -20.1%.
`O=[N+]([O-])c1cccc(-c2ccc3nnc(SCc4cccnc4)n3n2)c1` was tested, and the “activity change, negative = inhibition” value was inactive: 33.5%.
For `CCc1nnc2c(NCCc3ccc(OC)c(OC)c3)nc3ccccc3n12`, the “activity change, negative = inhibition” value was inactive: -8.39%.
`CCOc1cccc(CNc2ccc(O)cc2)c1OCc1ccccc1Cl` was tested, and the “activity change, negative = inhibition” value was inactive: -22.1%.
`Cc1cc(-c2n[nH]c(=S)n2/N=C/C=C/c2ccco2)n[nH]1` was tested, and the Potency was active: 44.7 µM.
With `Cc1cc(N/N=C/c2ccccc2)nc(N)n1` the “activity change, negative = inhibition” value was inactive: 34.7%.
With `O=C1NC2c3c(Cl)sc(Cl)c3C(=O)C2O1` (configuration not stated) the Potency was active: 3.16 µM.
For `N#C/C(=C/c1cccs1)c1nc2ccccc2[nH]1`, the “activity change, negative = inhibition” value was inactive: -2.14%.
In the case of `C=CCC[C@@H](Cc1ccc(F)cc1)C(=O)OC[C@H](Cc1c[nH]c2ccccc12)NC(=O)[C@H](CC=C)CC(=O)N(CCO)Cc1ccccc1`, the “activity change, negative = inhibition” value is reported as inactive: -8.12%.
With `Oc1ccccc1-c1nc(/C=C/c2ccccc2)nn1-c1ccccc1` the “activity change, negative = inhibition” value was inactive: -25%.
In the case of `O=C(CCNc1cc(Cl)cc(Cl)c1)c1ccco1`, the “activity change, negative = inhibition” value is reported as inactive: -4.98%.
For `CCCCCCN1C[C@@H](n2cc(COC(=O)c3ccccc3)nn2)[C@H](O)C[C@@H]1c1ccc(C)cc1`, the “activity change, negative = inhibition” value was inactive: -27.4%.
For `CCn1cnc2cc(NCc3ccc(N(C)C)cc3)ccc21`, the “activity change, negative = inhibition” value was inactive: -11.4%.
In the case of `COc1ccccc1/C=C/C=N/n1c(C2CCCCC2)n[nH]c1=S`, the “activity change, negative = inhibition” value is reported as inactive: -6.32%.
With `COc1ccc(C(CC(=O)N2CCCCC2)c2c(OC)cc(OC)c3c(-c4ccccc4)cc(=O)oc23)cc1` (configuration not stated) the Potency was active: 20 µM.
With `O=C(NCc1ccco1)/C(=C\c1ccco1)NC(=O)c1ccc(Br)o1` the “activity change, negative = inhibition” value was inactive: -4.66%.
With `CCc1nnc(SCC(=O)N(C)c2ccccc2)c2cc3sccc3n12` the “activity change, negative = inhibition” value was inactive: 18.3%.
With `CS(=O)(=O)C1=NN2C(=N)/C(=C\c3ccc(OCCOc4ccccc4)cc3)C(=O)N=C2S1` the Potency was active: 44.7 µM.

Source: PubChem BioAssay AID588591 (National Center for Advancing Translational Sciences (NCATS), 2011)
On the % scale 0 is the no-effect control and ±100 the full control effect; potency means the concentration at half of the fitted maximal effect.
